Screen size: about 350,000 compounds; about 9,900 (2.8%) were called active. The inconclusive results got no clear call from the source; some entries with a clear call stand among them for comparison. The call rests on the fitted dose curve; in most records, active means well fitted activation curve with a large enough effect; inconclusive means small, poorly fitted or top-dose-only effect; inactive means no such curve, though single readings can be large or run the other way. Potencies of inconclusive entries are left out as doubtful fits.
Test: A quantitative high throughput screen for small molecules that induce DNA re-replication in MCF 10a normal breast cells. Further: nearly all actives have a fitted effect of over 50% in size. On activity, positive = re-replication: % of control where 0% means no effect.
Details: MCF 10A DNA re-replication, Hoechst nuclear intensity, 48 h; activity, positive = re-replication: at 46.1 µM (top of the series)
Potency means the concentration at half of the fitted maximal effect; tags describe the fitted curve by direction and shape.

| Structure (SMILES) | Potency | activity, positive = re-replication |
| --- | --- | --- |
| COc1cccc(Nc2nc(N)nc(C(F)(F)F)n2)c1 | inconclusive [activator, partial curve, poor fit] |  |
| Cc1cc(=O)[nH]c(N=N/C(=N/Nc2ccc(O)cc2)c2ccccc2)n1 | inconclusive [activator, single point] |  |
| Cc1cccc(S(=O)(=O)Nc2ccc(-c3ccc4nncn4n3)cc2)c1 |  | inactive: -0.706% |
| CC(NC(=O)COC(=O)Cc1cccs1)c1ccc(F)cc1 (stereo not drawn) |  | inactive: 0.0633% |
| CCOc1cc(CN2CCN(C(=O)c3ccco3)CC2)ccc1OC |  | inactive: 15.6% |
| CC(C)CCn1c(=O)c2sccc2n2c(CCCC(=O)N3CCC(N4CCCCC4)CC3)nnc12 | inconclusive [activator, single point] |  |
| O=S(=O)(NCCc1ccc(F)cc1)c1cc(C(F)(F)F)ccc1Br | inconclusive [activator, single point] |  |
| O=C(Nc1ccccc1N1CCOCC1)C1CCN(S(=O)(=O)c2ccccc2F)CC1 |  | inactive: -2.01% |
| COc1cc(-c2noc(C)c2C#CC2(N)CCCCC2)cc(OC)c1OC | inconclusive [activator, single point] |  |
| O=c1oc(C2(O)CCCCC2)cc2ccc(-c3ccc4[nH]ccc4c3)cc12 | inconclusive [activator, single point] |  |
| Cc1ccccc1-c1nc(CS(=O)(=O)CC(=O)NCCN2CCCC2)c(C)o1 |  | inactive: -2.12% |
| COc1cc(O)c(C(=O)/C=C/c2ccccc2)c(OC)c1 | inconclusive [activator, partial curve, poor fit] |  |
| CCOc1ccc(NC(=S)N2CCCN(Cc3cccc(Cl)c3)C2)cc1 | inconclusive [activator, single point] |  |
| CCOc1ncccc1C(=O)NCCc1c[nH]c2ccccc12 | inconclusive [activator, partial curve, poor fit] |  |
| COc1cccc(C(=O)Nc2ccc(N3CCN(C(=O)c4ccco4)CC3)cc2)c1 | active: 20.6 µM |  |
| COc1ccc(C(CNC(=O)c2cccc(S(=O)(=O)Nc3ccccc3Cl)c2)N2CCOCC2)cc1 (stereo not drawn) | inconclusive [activator, full curve, poor fit] |  |
| CC(C)c1ccc(/C=C2\SC(=S)N(CCC(=O)N3CCCCC3CCO)C2=O)cc1 (stereo not drawn) |  | inactive: 3.36% |
| Cc1cccn2c(=O)c3cc(C(=O)NC4CCCCCC4)sc3nc12 | inconclusive [activator, single point] |  |
| CC1CCCN(c2sc(S(C)(=O)=O)nc2S(=O)(=O)c2ccc(Cl)cc2)C1 (stereo not drawn) |  | inactive: 7.58% |
| COC(=O)c1c(NC(=O)C2=COCCO2)sc(C)c1C |  | inactive: 7.45% |
| COc1ccc(/C=C2\N=C(SC)N(C)C2=O)cc1 | inconclusive [activator, partial curve, poor fit] |  |
| COc1cc(C(=O)OCC(=O)NCc2ccccc2)cc(NC(=O)c2ccco2)c1OC | inconclusive [activator, partial curve, poor fit] |  |
| CCOC(=O)c1sc2nc3c(SCC(=O)O)cc(C(=O)c4cc(F)ccc4O)cn3c(=O)c2c1C | active: 3.26 µM |  |

| Structure (SMILES) | Potency | activity, positive = re-replication |
| --- | --- | --- |
| COCCCNc1oc(/C=C/c2ccccc2)nc1C#N | active: 16.4 µM |  |
| c1ccc(-c2ccc(-c3cn4c(n3)CCC4)cc2)cc1 | inconclusive [activator, partial curve, poor fit] |  |
| CCOC(=O)CSc1nc(C(C)(C)C)nc2ccccc12 | inconclusive [activator, single point] |  |
| CCOC(=O)N1CCN(c2nc(-c3ccc(Cl)cc3)cs2)CC1 | inconclusive [activator, single point] |  |
| O=C(CCN1CCCCC1c1cccnc1)NCc1ccccc1 (stereo not drawn) | inconclusive [activator, partial curve, poor fit] |  |
| COc1ccc(OC)c(C2=CC(=O)C[C@H](c3ccc4c(c3)OCO4)C2)c1 | inconclusive [activator, full curve, poor fit] |  |
| Cc1cc(C)nc(/N=C2\NC(=O)CC(C(=O)O)N2c2ccc(Cl)cc2)n1 (stereo not drawn) |  | inactive: -0.0562% |
| Fc1ccccc1CNC(=S)Nc1cccc(C(F)(F)F)c1 | inconclusive [activator, single point] |  |
| COc1cc(CNCCc2ccccc2)cc(Br)c1OCC(=O)Nc1ccccc1C | inconclusive [activator, single point] |  |
| O=[N+]([O-])/C=C/c1ccc2c(ccn2Cc2ccccc2)c1 | inconclusive [activator, partial curve, poor fit] |  |
| CCc1ccc(C2=NN(c3ccc(S(N)(=O)=O)cc3)C(c3ccc(F)cc3)C2)cc1 (stereo not drawn) | inconclusive [activator, partial curve, poor fit] |  |
| CCCN1CCCc2cc(CN)ccc21 | active: 13 µM |  |
| CCN(CC)S(=O)(=O)c1ccc(=O)n(CC(=O)N2CCCc3cc(C)ccc32)c1 | inconclusive [activator, single point] |  |
| Cc1ccc(S(=O)(=O)c2nc(-c3ccco3)oc2N2CCC(C)CC2)cc1 | inconclusive [activator, partial curve, poor fit] |  |
| COCCn1c(SCC(=O)NC2CC2)nc2ccccc21 |  | inactive: 16.6% |
| Cc1c(-c2nc(N)nc(Nc3ccc(F)cc3)n2)oc2ccccc12 | inconclusive [activator, single point] |  |
| Cn1cccc1/C=N/NC(=O)c1sc2ccccc2c1Cl | inconclusive [activator, partial curve, poor fit] |  |
| COc1ccc(-c2nnc(SCC(=O)/C(C#N)=C(\C)N)o2)cc1 |  | inactive: -2.17% |
| CCc1ccccc1NC(=O)/C(=C/c1ccco1)c1ccccc1 | inconclusive [activator, single point] |  |
| Cc1csc(CNc2ncnc3ccc(-c4ccoc4)cc23)c1 | inconclusive [activator, partial curve, poor fit] |  |
| COc1ccc(Cl)cc1NC(=O)CNC(c1ccccc1)c1ccccc1 | inconclusive [activator, partial curve] |  |
| COc1cc2c(cc1NC(=O)CSc1nnnn1-c1ccccc1)oc1ccccc12 | inconclusive [activator, partial curve] |  |
| Cc1sc2nc(CSC(C)C(=O)NC3(C#N)CCCCC3)[nH]c(=O)c2c1C (stereo not drawn) | inconclusive [activator, full curve, poor fit] |  |

| Structure (SMILES) | Potency | activity, positive = re-replication |
| --- | --- | --- |
| Cc1ccc(-c2cc(C(=O)N/N=C/c3ccc([N+](=O)[O-])o3)c3ccccc3n2)o1 | inconclusive [activator, single point] |  |
| Cc1nc2nc(CCNS(=O)(=O)c3ccc(Cl)cc3)cn2nc1C |  | inactive: -32% |
| NC(=O)NC(=O)COC(=O)/C=C/c1cccc(Br)c1 |  | inactive: -1.9% |
| COc1ccc(C2c3ccc4ccccc4c3Oc3ncn(CCCO)c(=N)c32)cc1OC (stereo not drawn) | active: 18.4 µM |  |
| COc1ccc(CCNC(=O)COc2cccc3c2OC(C)(C)C3)cc1OC |  | inactive: 8.5% |
| O=S(=O)(c1ccccc1)N1N=C(c2ccc(O)cc2)CC1c1ccco1 (stereo not drawn) |  | inactive: -23.4% |
| CN1CCN(C(=O)C2=C[C@H](c3coc4ccccc4c3=O)C[C@H](OCc3ccc(CO)cc3)O2)CC1 |  | inactive: 13.5% |
| O=C(NCC(c1ccco1)N1CCN(c2ccc(F)cc2)CC1)C(=O)NC1CCCCC1 (stereo not drawn) | inconclusive [activator, single point] |  |
| O=C(NCc1ccc(F)cc1)c1ccc2c(c1)S(=O)(=O)c1ccccc1C2=O | inconclusive [activator, single point] |  |
| COc1cccc(-c2cc(C(=O)Nc3ccc4c(c3)OCO4)no2)c1 |  | inactive: 12% |
| COc1ccc(CC(=O)O/N=C(\N)Cc2cccc3ccccc23)cc1 | inconclusive [activator, single point] |  |
| COc1ccccc1-c1c(C#N)c(N)nc2c1CCc1ccccc1-2 | inconclusive [activator, single point] |  |
| CC(C)CC(C(=O)Nc1oc(-c2ccccc2)c(-c2ccccc2)c1C#N)N1C(=O)c2ccccc2C1=O (stereo not drawn) | inconclusive [activator, single point] |  |
| Cc1ccc(NC(=O)CCNC(=O)c2ccc(Br)cc2)cc1S(=O)(=O)N1CCOCC1 |  | inactive: 2.43% |
| CCC(=O)Nc1ccc(S(=O)(=O)N2CCc3ccccc32)cc1 | inconclusive [activator, partial curve, poor fit] |  |
| OCCN(CCO)c1ccc(C(c2ccc(Cl)cc2)c2ccc(N(CCO)CCO)cc2Cl)c(Cl)c1 | inconclusive [activator, single point] |  |
| Cn1nc(C(=O)Nc2cccc(C(F)(F)F)c2)ccc1=O |  | inactive: 0.672% |
| O=C(N/N=C/c1cc(Br)cc(Br)c1O)c1ccncc1 | inconclusive [activator, single point] |  |
| CCCS(=O)(=O)N1CCCC(C(=O)NCCCN2CCCC2=O)C1 (stereo not drawn) | inconclusive [activator, single point] |  |
| C=CCn1c(COc2cccc(C)c2C)nnc1SCC(=O)N1CCN(c2ccccc2)CC1 | inconclusive [activator, partial curve] |  |
| N/C(=N\OC(=O)c1ccc2ccccc2c1)c1ccccc1Cl | inconclusive [activator, full curve, poor fit] |  |
| CCC/C=C(\CCC)C(NS(=O)(=O)c1cccc2cccnc12)c1ccc(C(=O)OC)cc1 (stereo not drawn) | inconclusive [activator, single point] |  |

Reference: PubChem BioAssay AID624296 (National Center for Advancing Translational Sciences (NCATS), 2012)
